According to PMC4536226:
Substitutions are numbered along the chain they refer to. These are yes or no findings as the source states them, for the method shown. In cells and extracts the contact can be indirect. Some results given as binding are weak or reduced against the parent protein; the word gives no strength. Tags and fused reporters may be left off the sequences shown.

B1: Myc-tagged Cos2 (Myc-Cos2) (protein, UniProt O16844 1-1201)
chain: MEIPIQVAVRIFPHRELKDLLRSFGPTEPKKDAQAVDEGADSKDSEAQVPAAEKDNPSISETDPNGNAEQDSAADSKTIPDANGNDSGQKDYPDSAYCVQAIPISASALGLPSALPGGDPMDSIAAGLIQVGPHTVPVTHALPSSSSQEQVYHQTVFPLITLFLEGFDASVVTYGQRGQGKSYTLYGNVQDPTLTDSTEGVVQLCVRDIFSHISLHPERTYAINVGFVEICGGDVCDLLGMGNIHCTNVDAVFHWLQVGLSARQSLPAHTLFTLTLEQQWVSKEGLLQHRLSTASFSDLCGTERCGDQPPGRPLDAGLCMLEQVISTLTDPGLMYGVNGNIPYGQTTLTTLLKDSFGGRAQTLVILCVSPLEEHLPETLGNLQFAFKVQCVRNFVIMNTYSDDNTMIVQPAEPVPESNSSAGPLSQAGPGDNFGLQFAASQWSKLVTNAEGLFSKLIDSKLITEVEKEQIEEWLFLKQECEECLSSTEAMRQQKQLVPILEAEEPEDVNSEAANSESPNSDNENDTDNESHRPDLDDKIESLMEEFRDKTDALILEKHAEYLSKHPKAVMQSQDREIEAQPPEENGDDRKVSIGSRRRSVQPGASLSTAELAMLNRVASQQPPPPIDPESVVDPLESSSGEGIRQAALAAAAATAPIEQLQKKLRKLVAEIEGKQRQLREIEETIQVKQNIIAELVKNSDTRSHAKQRFHKKRAKLEAECDKAKKQLGKALVQGRDQSEIERWTTIIGHLERRLEDLSSMKHIAGESGQKVKKLQQSVGESRKQADDLQKKLRKECKLRCQMEAELAKLRESRETGKELVKAQGSPEQQGRQLKAVQARITHLNHILREKSDNLEEQPGPEQQETLRHEIRNLRGTRDLLLEERCHLDRKLKRDKVLTQKEERKLLECDEAIEAIDAAIEFKNEMITGHRSIDTSDRIQREKGEQMLMARLNRLSTEEMRTLLYKYFTKVIDLRDSSRKLELQLVQLERERDAWEWKERVLSNAVRQARLEGERNAVLLQRQHEMKLTLMLRHMAEETSASSASYGERALAPACVAPPVQASSDFDYDHFYKGGGNPSKALIKAPKPMPTGSALDKYKDKEQRSGRNIFAKFHVLTRYASAAAAGSSGSTAEESTALIESTTTATATTTSTTTTGAVGKVKDKALVSFRPEQLKRLMPAPTATKVTRQKNKIIIQDASRRN
B2: V5-tagged Suppressor of fused (V5-Su(fu)) (protein, UniProt Q9VG38 1-468)
chain: MAEANLDKKPEVKPPPGLKAIIDHLGQVYPNQPNPLQVTTLLKYWLGGQDPLDYISMYNYPGDVDRNVPPHWHYISFGLSDLHGDERVHLREEGVTRSGMGFELTFRLAKTEIELKQQIENPEKPQRPPTWPANLLQAIGRYCFQTGNGLCFGDNIPWRKSLDGSTTSKLQNLLVAQDPQLGCIDTPTGTVDFCQIVGVFDDELEQASRWNGRGVLNFLRQDMQTGGDWLVTNMDRQMSVFELFPETLLNLQDDLEKQGSDLAGVNADFTFRELKPTKEVKEEVDFQALSEKCANDENNRQLTDTQMKREEPSFPQSMSMSSNSLHKSCPLDFQAQAPNCISLDGIEITLAPGVAKYLLLAIKDRIRHGRHFTFKAQHLALTLVAESVTGSAVTVNEPYGVLGYWIQVLIPDELVPRLMEDFRSAGLDEKCEPKERLELEWPDKNLKLIIDQPEPVLPMSLDAAPLKM

What was measured:
Test in all cases: co-IP; S2R+ cells co-transfected with HA-Fu variants, V5-Su(fu) and Myc-Cos2, and with Fu 3'UTR dsRNA to knock down endogenous Fu; IP with anti-HA matrix; with or without HhN stimulation (Fig 2C); lysis in PBS with 1.0% Triton X-100
Fu301-805 (Drosophila) = target: T1, Fu301-805 (Drosophila) (UniProt P23647)
T1 sequence: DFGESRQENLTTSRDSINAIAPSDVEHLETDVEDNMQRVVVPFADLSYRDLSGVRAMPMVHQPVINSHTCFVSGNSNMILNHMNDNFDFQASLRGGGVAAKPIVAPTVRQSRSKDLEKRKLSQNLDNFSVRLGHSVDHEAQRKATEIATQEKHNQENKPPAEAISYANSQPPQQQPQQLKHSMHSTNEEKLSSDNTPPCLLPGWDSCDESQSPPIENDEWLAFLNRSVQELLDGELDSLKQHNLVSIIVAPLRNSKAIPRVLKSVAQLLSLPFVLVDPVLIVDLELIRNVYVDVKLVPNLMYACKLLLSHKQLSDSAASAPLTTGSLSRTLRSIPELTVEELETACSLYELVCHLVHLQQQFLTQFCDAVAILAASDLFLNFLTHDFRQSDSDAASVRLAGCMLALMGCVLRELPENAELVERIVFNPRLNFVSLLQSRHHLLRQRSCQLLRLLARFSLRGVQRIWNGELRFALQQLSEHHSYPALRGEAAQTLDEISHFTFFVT

Fu331-805 (Drosophila) = target: T2, Fu331-805 (Drosophila) (UniProt P23647)
T2 sequence: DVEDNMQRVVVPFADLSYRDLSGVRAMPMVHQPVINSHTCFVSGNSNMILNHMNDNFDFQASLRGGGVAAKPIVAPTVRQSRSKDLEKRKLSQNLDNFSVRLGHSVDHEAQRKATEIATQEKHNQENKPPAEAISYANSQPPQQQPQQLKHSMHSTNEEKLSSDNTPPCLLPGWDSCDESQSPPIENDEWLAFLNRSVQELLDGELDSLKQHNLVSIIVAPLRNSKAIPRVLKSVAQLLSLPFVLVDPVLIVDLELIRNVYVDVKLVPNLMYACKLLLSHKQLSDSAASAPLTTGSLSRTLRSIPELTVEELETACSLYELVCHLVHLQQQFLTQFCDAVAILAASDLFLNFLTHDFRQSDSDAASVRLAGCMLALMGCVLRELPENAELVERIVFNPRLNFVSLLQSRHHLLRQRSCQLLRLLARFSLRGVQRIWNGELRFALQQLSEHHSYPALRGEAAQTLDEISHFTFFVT

Fu^K33A (Drosophila) = target: T3, Fu^K33A (Drosophila) (UniProt P23647)
T3 sequence: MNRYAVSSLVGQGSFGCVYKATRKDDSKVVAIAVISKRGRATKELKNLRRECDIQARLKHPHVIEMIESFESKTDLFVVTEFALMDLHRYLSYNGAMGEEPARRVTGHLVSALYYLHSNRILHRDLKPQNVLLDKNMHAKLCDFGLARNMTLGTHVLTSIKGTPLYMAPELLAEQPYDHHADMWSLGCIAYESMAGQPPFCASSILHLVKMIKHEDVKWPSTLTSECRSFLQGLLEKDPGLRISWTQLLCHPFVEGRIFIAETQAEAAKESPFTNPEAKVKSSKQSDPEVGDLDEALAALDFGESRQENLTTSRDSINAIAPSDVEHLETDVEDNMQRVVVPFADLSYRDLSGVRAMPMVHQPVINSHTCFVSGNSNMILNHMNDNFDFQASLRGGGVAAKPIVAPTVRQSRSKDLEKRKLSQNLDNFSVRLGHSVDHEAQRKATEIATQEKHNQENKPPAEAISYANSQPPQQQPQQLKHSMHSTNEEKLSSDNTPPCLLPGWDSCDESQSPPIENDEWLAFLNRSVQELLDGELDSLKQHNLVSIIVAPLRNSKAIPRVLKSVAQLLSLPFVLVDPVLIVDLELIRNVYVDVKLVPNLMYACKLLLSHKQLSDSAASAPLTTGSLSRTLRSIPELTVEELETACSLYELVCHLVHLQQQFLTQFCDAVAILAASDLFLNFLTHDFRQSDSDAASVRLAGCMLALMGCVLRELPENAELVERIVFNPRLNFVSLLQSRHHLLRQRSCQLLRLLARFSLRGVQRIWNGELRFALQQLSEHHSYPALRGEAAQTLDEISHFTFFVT

[1] = target: T4, N-terminally HA-tagged full-length Fu (HA-Fu) (Drosophila) (UniProt P23647)
T4 sequence: T3 sequence with A33K

Binder | binding (Fu301-805 (Drosophila)) | binding (Fu331-805 (Drosophila)) | binding (Fu^K33A (Drosophila)) | binding [1]
B1 | binds | binds | binds | binds
B2 | binds weakly | binds weakly | binds | binds weakly
